Test results taken from the supplement of paper PMC8728848.
Some of the results follow.

How the values were obtained:
Assay in all cases: glycan array binding signal (z-score within array); higher = stronger binding
Details in all cases: glycan notation: IUPAC condensed, linker removed
[1] = target: Neu5Ac(a2-3)Gal(b1-4)[Fuc(a1-3)]GlcNAc6S
Summary of the method: (§1)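 The binding signal is a Z-score computed within each array. Data were drawn from 3228 arrays in the Consortium for Functional Glycomics database, restricted to those with a known protein sequence. Scores were averaged over arrays of the same protein sequence at different concentrations or buffers, and over linkers, and negative values can be taken as non-binding.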

[2] = target: Neu5Ac(a2-3)Gal6S(b1-4)GlcNAc
Summary of the method: as §1

[3] = target: Neu5Ac(a2-3)Gal6S(b1-4)[Fuc(a1-3)]GlcNAc
Summary of the method: as §1

Neu5Ac(a2-3)GalNAc = target: Neu5Ac(a2-3)GalNAc
Summary of the method: as §1

[4] = target: Neu5Ac(a2-3)GalNAc(b1-4)GlcNAc
Summary of the method: as §1

[5] = target: Neu5Ac(a2-3)[GalNAc(b1-4)]Gal(b1-4)Glc
Summary of the method: as §1

[6] = target: Neu5Ac(a2-3)[GalNAc(b1-4)]Gal(b1-4)GlcNAc
Summary of the method: as §1

[7] = target: Neu5Ac(a2-3)[GalNAc(b1-4)]Gal(b1-4)GlcNAc(b1-3)GalNAc
Summary of the method: as §1

[8] = target: Neu5Ac(a2-3)[Neu5Ac(a2-6)]GalNAc
Summary of the method: as §1

Neu5Ac(a2-6)Gal = target: Neu5Ac(a2-6)Gal
Summary of the method: as §1

[9] = target: Neu5Ac(a2-6)Gal(b1-3)GlcNAc(b1-3)[Gal(b1-4)GlcNAc(b1-6)]Gal(b1-4)Glc
Summary of the method: as §1

Neu5Ac(a2-6)Gal(b1-4)Glc = target: Neu5Ac(a2-6)Gal(b1-4)Glc
Summary of the method: as §1

[10] = target: Neu5Ac(a2-6)Gal(b1-4)GlcNAc
Summary of the method: as §1

[11] = target: Neu5Ac(a2-6)Gal(b1-4)GlcNAc(b1-2)Man(a1-3)Man(b1-4)GlcNAc(b1-4)GlcNAc
Summary of the method: as §1

[12] = target: Neu5Ac(a2-6)Gal(b1-4)GlcNAc(b1-2)Man(a1-3)[Gal(b1-4)GlcNAc(b1-2)Man(a1-6)]Man(b1-4)GlcNAc(b1-4)GlcNAc
Summary of the method: as §1

[13] = target: Neu5Ac(a2-6)Gal(b1-4)GlcNAc(b1-2)Man(a1-3)[GlcNAc(b1-2)Man(a1-6)]Man(b1-4)GlcNAc(b1-4)GlcNAc
Summary of the method: as §1

[14] = target: Neu5Ac(a2-6)Gal(b1-4)GlcNAc(b1-2)Man(a1-3)[GlcNAc(b1-2)Man(b1-4)GlcNAc(b1-2)Man(a1-6)]Man(b1-4)GlcNAc(b1-4)GlcNAc
Summary of the method: as §1

[15] = target: Neu5Ac(a2-6)Gal(b1-4)GlcNAc(b1-2)Man(a1-3)[Man(a1-6)]Man(b1-4)GlcNAc(b1-4)GlcNAc
Summary of the method: as §1

[16] = target: Neu5Ac(a2-6)Gal(b1-4)GlcNAc(b1-2)Man(a1-3)[Neu5Ac(a2-6)Gal(b1-4)GlcNAc(b1-2)Man(a1-6)]Man(b1-4)GlcNAc(b1-4)GlcNAc
Summary of the method: as §1

[17] = target: Neu5Ac(a2-6)Gal(b1-4)GlcNAc(b1-2)Man(a1-6)Man(b1-4)GlcNAc(b1-4)GlcNAc
Summary of the method: as §1

[18] = target: Neu5Ac(a2-6)Gal(b1-4)GlcNAc(b1-2)Man(a1-6)[Gal(b1-4)GlcNAc(b1-2)Man(a1-3)]Man(b1-4)GlcNAc(b1-4)GlcNAc
Summary of the method: as §1

[19] = target: Neu5Ac(a2-6)Gal(b1-4)GlcNAc(b1-2)Man(a1-6)[GlcNAc(b1-2)Man(a1-3)]Man(b1-4)GlcNAc(b1-4)GlcNAc
Summary of the method: as §1

[20] = target: Neu5Ac(a2-6)Gal(b1-4)GlcNAc(b1-2)Man(a1-6)[Man(a1-3)]Man(b1-4)GlcNAc(b1-4)GlcNAc
Summary of the method: as §1

[21] = target: Neu5Ac(a2-6)Gal(b1-4)GlcNAc(b1-3)Gal(b1-3)GlcNAc
Summary of the method: as §1

[22] = target: Neu5Ac(a2-6)Gal(b1-4)GlcNAc(b1-3)Gal(b1-4)GlcNAc
Summary of the method: as §1

[23] = target: Neu5Ac(a2-6)Gal(b1-4)GlcNAc(b1-3)Gal(b1-4)GlcNAc(b1-3)Gal(b1-4)GlcNAc
Summary of the method: as §1

[24] = target: Neu5Ac(a2-6)Gal(b1-4)GlcNAc(b1-3)Gal(b1-4)[Fuc(a1-3)]GlcNAc(b1-3)Gal(b1-4)[Fuc(a1-3)]GlcNAc
Summary of the method: as §1

[25] = target: Neu5Ac(a2-6)Gal(b1-4)GlcNAc(b1-3)GalNAc
Summary of the method: as §1

[26] = target: Neu5Ac(a2-6)Gal(b1-4)GlcNAc6S
Summary of the method: as §1

Neu5Ac(a2-6)GalNAc = target: Neu5Ac(a2-6)GalNAc
Summary of the method: as §1

[27] = target: Neu5Ac(a2-6)GalNAc(b1-4)GlcNAc
Summary of the method: as §1

[28] = target: Neu5Ac(a2-6)GlcNAc(b1-4)GlcNAc
Summary of the method: as §1

[29] = target: Neu5Ac(a2-6)GlcNAc(b1-4)GlcNAc(b1-4)GlcNAc
Summary of the method: as §1

Neu5Ac(a2-8)Neu5Ac = target: Neu5Ac(a2-8)Neu5Ac
Summary of the method: as §1

[30] = target: Neu5Ac(a2-8)Neu5Ac(a2-3)Gal(b1-3)GalNAc(b1-4)[Neu5Ac(a2-8)Neu5Ac(a2-3)]Gal(b1-4)Glc
Summary of the method: as §1

[31] = target: Neu5Ac(a2-8)Neu5Ac(a2-3)Gal(b1-4)Glc
Summary of the method: as §1

[32] = target: Neu5Ac(a2-8)Neu5Ac(a2-3)[Gal(b1-3)GalNAc(b1-4)]Gal(b1-4)Glc
Summary of the method: as §1

[33] = target: Neu5Ac(a2-8)Neu5Ac(a2-3)[GalNAc(b1-4)]Gal(b1-4)Glc
Summary of the method: as §1

[34] = target: Neu5Ac(a2-8)Neu5Ac(a2-8)Neu5Ac
Summary of the method: as §1

[35] = target: Neu5Ac(a2-8)Neu5Ac(a2-8)Neu5Ac(a2-3)Gal(b1-4)Glc
Summary of the method: as §1

[36] = target: Neu5Ac(a2-8)Neu5Ac(a2-8)Neu5Ac(a2-3)[GalNAc(b1-4)]Gal(b1-4)Glc
Summary of the method: as §1

[37] = target: Neu5Ac(a2-8)Neu5Ac(a2-8)Neu5Ac(a2-8)Neu5Ac(a2-3)[GalNAc(b1-4)]Gal(b1-4)Glc
Summary of the method: as §1

[38] = target: Neu5Ac(b2-6)Gal(b1-4)GlcNAc
Summary of the method: as §1

Neu5Ac(b2-6)GalNAc = target: Neu5Ac(b2-6)GalNAc
Summary of the method: as §1

[39] = target: Neu5Ac9Ac(a2-3)Gal(b1-3)GlcNAc
Summary of the method: as §1

B1: CVN (Nostoc ellipsosporum), P81180 (protein)
chain: LGKFSQTCYNSAIQGSVLTSTCERTNGGYNTSSIDLNSVIENVDGSLKWQPSNFIETCRNTQLAGSSELAAECKTRAQQFVSTKINLDDHIANIDGTLKYE
**Q.** What does the source list for B1?
**A.** glycan array binding signal (z-score) [1]: -0.3; glycan array binding signal (z-score) [2]: -0.308; glycan array binding signal (z-score) [3]: -0.307; glycan array binding signal (z-score) (Neu5Ac(a2-3)GalNAc): -0.303; glycan array binding signal (z-score) [4]: -0.306; glycan array binding signal (z-score) [5]: -0.305; glycan array binding signal (z-score) [6]: -0.283; glycan array binding signal (z-score) [7]: -0.195; glycan array binding signal (z-score) [8]: -0.185; glycan array binding signal (z-score) (Neu5Ac(a2-6)Gal): -0.303; glycan array binding signal (z-score) [9]: 0.59; glycan array binding signal (z-score) (Neu5Ac(a2-6)Gal(b1-4)Glc): -0.301; glycan array binding signal (z-score) [10]: -0.299; glycan array binding signal (z-score) [11]: -0.293; glycan array binding signal (z-score) [12]: -0.308; glycan array binding signal (z-score) [13]: -0.304; glycan array binding signal (z-score) [14]: -0.303; glycan array binding signal (z-score) [15]: -0.303; glycan array binding signal (z-score) [16]: -0.295; glycan array binding signal (z-score) [17]: -0.307; glycan array binding signal (z-score) [18]: -0.303; glycan array binding signal (z-score) [19]: -0.304; glycan array binding signal (z-score) [20]: -0.305; glycan array binding signal (z-score) [21]: -0.302; glycan array binding signal (z-score) [22]: -0.284; glycan array binding signal (z-score) [23]: -0.307; glycan array binding signal (z-score) [24]: 0.537; glycan array binding signal (z-score) [25]: 0.701; glycan array binding signal (z-score) [26]: -0.304; glycan array binding signal (z-score) (Neu5Ac(a2-6)GalNAc): -0.303; glycan array binding signal (z-score) [27]: -0.3; glycan array binding signal (z-score) [28]: -0.3; glycan array binding signal (z-score) [29]: -0.293; glycan array binding signal (z-score) (Neu5Ac(a2-8)Neu5Ac): -0.304; glycan array binding signal (z-score) [30]: -0.296; glycan array binding signal (z-score) [31]: -0.303; glycan array binding signal (z-score) [32]: -0.246; glycan array binding signal (z-score) [33]: -0.295; glycan array binding signal (z-score) [34]: -0.305; glycan array binding signal (z-score) [35]: -0.303; glycan array binding signal (z-score) [36]: -0.237; glycan array binding signal (z-score) [37]: -0.203; glycan array binding signal (z-score) [38]: -0.302; glycan array binding signal (z-score) (Neu5Ac(b2-6)GalNAc): -0.304; glycan array binding signal (z-score) [39]: -0.304
